In all, about 110,000 compounds were measured (“z-score”: median about -0.1, highest 2% from about 2 on). The list shows a part of the results. The source made the active and inactive calls.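 How the source made its calls: active means z-score in the third read window above 3 or below -3; inactive means the rest.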
biological target: Metabotropic glutamate receptor 8 (Rattus norvegicus) (UniProt P70579); assay: mGluR8 Gi/Go-coupled signaling modulation – cell-based, rat, thallium flux, HTS, primary screen (AID 488969); settings: HEK293 rat mGluR8, GIRK (G protein-gated inwardly rectifying potassium channel) thallium flux, FluoZin2; at 10 µM; stronger effect = higher value; submaximal glutamate (EC20) added with thallium
Chain of UniProt P70579 (P70579 whole entry, looked up): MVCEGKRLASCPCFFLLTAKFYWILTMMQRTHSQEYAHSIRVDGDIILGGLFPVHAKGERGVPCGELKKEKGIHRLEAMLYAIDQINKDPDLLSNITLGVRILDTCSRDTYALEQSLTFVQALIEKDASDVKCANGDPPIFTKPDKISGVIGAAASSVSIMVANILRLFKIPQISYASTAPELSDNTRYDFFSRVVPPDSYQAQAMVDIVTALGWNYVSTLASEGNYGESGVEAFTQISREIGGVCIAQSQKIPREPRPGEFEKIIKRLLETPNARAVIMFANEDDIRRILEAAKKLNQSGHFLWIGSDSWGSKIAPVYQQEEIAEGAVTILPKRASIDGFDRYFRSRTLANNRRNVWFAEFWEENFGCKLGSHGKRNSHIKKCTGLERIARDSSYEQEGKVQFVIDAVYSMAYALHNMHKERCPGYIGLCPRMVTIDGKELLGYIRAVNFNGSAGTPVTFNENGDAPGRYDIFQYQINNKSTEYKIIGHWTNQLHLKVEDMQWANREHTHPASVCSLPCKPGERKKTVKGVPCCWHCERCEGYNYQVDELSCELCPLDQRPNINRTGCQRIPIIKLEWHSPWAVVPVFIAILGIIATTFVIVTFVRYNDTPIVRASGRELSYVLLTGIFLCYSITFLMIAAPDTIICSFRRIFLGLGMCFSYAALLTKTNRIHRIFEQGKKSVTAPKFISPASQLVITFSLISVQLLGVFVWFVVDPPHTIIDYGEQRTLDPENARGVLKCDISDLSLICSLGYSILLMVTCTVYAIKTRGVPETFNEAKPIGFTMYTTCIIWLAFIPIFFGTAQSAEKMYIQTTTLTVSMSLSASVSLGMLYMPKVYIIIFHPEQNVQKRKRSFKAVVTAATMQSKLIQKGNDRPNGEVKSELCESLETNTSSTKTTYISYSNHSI

| Compound | z-score |
| --- | --- |
| CC(C)(CO)NCc1cc(Br)ccc1OCc1ccccc1 | 0.457 |
| O=C1C=CN(C(=O)Oc2ccccc2)CC1 | 0.0477 |
| O=C(CN1CCCCCC1)Nc1ccccc1F | -0.0393 |
| CCCOc1ccc(C(=O)NCCO)cc1 | -0.137 |
| CSc1ccccc1-c1nnc(-c2ccc(Cl)cc2Cl)o1 | -0.19 |
| O=C(CNC(=O)c1ccccc1F)OCC(=O)N1CCCCC1 | -0.254 |
| CCCn1c(N)c(N2CCCCC2)c(=O)n(CC(=O)Nc2ccc(OC(F)(F)F)cc2)c1=O | -0.235 |
| CC1(C)CC(=O)C2=C(C1)N(Cc1ccc(F)cc1)C(=O)C2(NC(=O)c1cccnc1)C(F)(F)F (stereo not given) | -0.113 |
| O=C(Cc1ccccc1)NC(NCCCN1CCOCC1)(C(F)(F)F)C(F)(F)F | 0.0609 |
| Cc1ccc(S(=O)(=O)NCC23C=CC(O2)C2C(=O)N(c4ccccc4)C(=O)C23)cc1 (stereo not given) | 0.438 |
| Cc1ccccc1C(=O)NNC(=O)C(=O)Nc1cccc(Cl)c1C | active: 6.02 |
| Cc1csc(NC(=O)C2COc3ccccc3O2)n1 (stereo not given) | 1.13 |
| CCCCCCCC(=O)N/N=C/c1ccco1 | 0.0471 |
| O=C(CN(c1ccc(Cl)c(Cl)c1)S(=O)(=O)c1ccccc1)N1CCc2ccccc2C1 | -0.183 |
| CCN(CC)S(=O)(=O)c1cccc(C(=O)N[C@H](C(=O)NCc2ccc(Cl)cc2)C(C)C)c1 | -0.475 |
| NCCN=C1NS(=O)(=O)c2ccccc21 | -0.228 |
| COc1ccc(/C=C/C(=O)NCC(=O)N/N=C/c2cc(Br)ccc2OCc2ccccc2)cc1 | -0.325 |
| CCN(CC)CCCn1c(=S)[nH]c2cc(C(=O)OC)ccc2c1=O | 0.199 |
| COC(=O)c1ccc(OC(=O)c2ccco2)cc1 | 0.696 |
| Cc1ccc(/C=N\NC(=O)C2COc3cc4ccccc4cc3O2)o1 (stereo not given) | 0.956 |
| O=C(CSc1nc2ccccc2[nH]1)N=Nc1c(O)[nH]c2ccccc12 | -0.572 |
| COc1ccc2nc(SCc3ccccc3)nc(C)c2c1 | -0.399 |

| Compound | z-score |
| --- | --- |
| O=C(CSc1nc2cc(S(=O)(=O)N3CCOCC3)ccc2o1)NC1CCCc2ccccc21 (stereo not given) | -0.421 |
| N/C(=N\OC(=O)CC1CCCCC1)c1cccnc1 | -0.219 |
| COC(C(=O)Nc1ccc(F)cc1)c1ccccc1 (stereo not given) | 0.662 |
| O=Cc1cn(-c2ccccc2)nc1-c1cc2ccccc2oc1=O | -0.213 |
| CC(C)(C)c1ccc(C(=O)OC/C(O)=C(\C#N)c2nc3ccccc3s2)cc1 | -0.169 |
| COc1ccc(C(=O)N2CCN(c3nc4ccccc4o3)CC2)cc1OC | -0.0995 |
| Cc1onc(-c2ccccc2)c1C(=O)Nc1ccncc1 | 0.37 |
| Clc1ccc(Cn2c(-c3cccnc3Cl)nc3ccccc32)cc1 | -0.275 |
| O=C(c1cn(-c2ccccc2)nc1-c1ccccc1)n1nnc2ccccc21 | -0.0979 |
| CS(=O)(=O)NC1c2cccc3cccc(c23)C1N1CCOCC1 (stereo not given) | -0.0469 |
| CC(C)(C)C(=O)N1CCN(c2ccc([N+](=O)[O-])cc2Cl)CC1 | -0.145 |
| Cc1onc(-c2ccccc2)c1C(=O)N1CC(C)OC(C)C1 (stereo not given) | 0.301 |
| CC1(C)CN(c2ccccc2)N(Cc2ccc(F)cc2)C1=O | -0.0869 |
| CC(C)OC(=O)c1cc(C(=O)c2cc(F)ccc2O)coc1=N | -0.176 |
| Cc1cc2nnc(SC(C)C#N)n2c2ccccc12 (stereo not given) | -0.327 |
| Cc1ccc(-n2c3nc(=O)[nH]c(=O)c-3cc3c(C)nn(-c4ccccc4)c32)c(C)c1 | -0.277 |
| Cc1ccc2nc(SCCC#N)nc(C)c2c1 | -0.366 |
| Cc1cc([N+](=O)[O-])nn1CCCC(=O)Nc1sc2c(c1C(N)=O)CCC(C)C2 (stereo not given) | -0.94 |
| Cc1cc(N2C(=O)CC(Cc3ccc(Cl)cc3)C2=O)no1 (stereo not given) | 1.17 |
| CCc1cc2c(SCC(=O)Nc3ncc(Cl)c(C)c3Cl)ncnc2s1 | -0.572 |
| C/C(CC(=O)Nc1cccc(Cl)c1)=N\NC(=O)Cc1ccc(Cl)cc1 | -0.0249 |
| O=S(=O)(Nc1ncnc2sc3c(c12)CCC3)c1ccc2ccccc2c1 | -0.826 |

| Compound | z-score |
| --- | --- |
| O=C1C=C(c2ccccc2)CC(c2cccs2)C1n1cnc([N+](=O)[O-])c1 (stereo not given) | -1.17 |
| CCOC(=O)c1ccc2c(c1)N(Cc1ccccc1C)C(=O)c1ccccc1S2=O (stereo not given) | -0.502 |
| NS(=O)(=O)c1ccc(NCc2c(F)cccc2Cl)cc1 | 0.253 |
| Cc1c(NC(=O)c2ccc(Br)o2)cccc1C(=O)O | -0.024 |
| CC1(C)NC(=O)N(CC(O)COc2ccc(-c3ccccc3)cc2)C1=O (stereo not given) | -0.0166 |
| COc1ccc(S(=O)(=O)N2CCCC2C(=O)Nc2nnc(-c3cccnc3)s2)cc1 (stereo not given) | -0.289 |
| Cc1cnc(NC(=O)c2ccco2)s1 | 0.4 |
| CCOC(=O)CC(NS(=O)(=O)c1ccc(OC)c(OC)c1)c1cccc([N+](=O)[O-])c1 (stereo not given) | -0.468 |
| CCOc1ccc(Cc2nn[nH]n2)cc1 | -0.0609 |
| Clc1ccc(Br)cc1-c1nc(-c2ccncc2)no1 | -0.152 |
| Cc1ccc(NC(=O)CC(NCCN2CCOCC2)C(=O)O)cc1Cl (stereo not given) | -0.0164 |
| Cc1ccc(OCC(=O)NNC(=O)c2cc(C)[nH]n2)cc1 | -0.355 |
| COC(CN(C(=O)CCl)C(C(=O)NC1CCCC(C)C1C)c1ccc(C)cc1)OC (stereo not given) | -0.383 |
| O=C(NC12CC3CC(CC(C3)C1)C2)N1CCN(c2nc(-c3ccccc3)cs2)CC1 | -0.367 |
| Nc1cc(-c2ccccc2)nn1S(=O)(=O)c1ccc(Br)cc1 | 0.0243 |
| CCOc1ccc2oc(-c3ccccc3)c(C(=O)N(C)C)c2c1 | -0.33 |
| COc1ccccc1NS(=O)(=O)c1cc(NC(=O)/C=C/c2cccs2)ccc1N1CCOCC1 | -0.133 |
| CC(=O)c1cc(F)c(N2CCN(C(=O)Cc3ccccc3)CC2)cc1C | 0.359 |
| CN(C)CCCN1C(=O)C(=O)/C(=C(/O)c2ccncc2)C1c1cccc(Br)c1 (stereo not given) | -0.318 |
| CN(CC1COc2ccccc2O1)C(=S)Nc1ccccc1F (stereo not given) | -0.243 |
| CC1(C)NC(=O)N(CC(=O)Nc2nc(-c3ccc(F)cc3)cs2)C1=O | -0.157 |
| CC(C)(C)C(=O)N(Cc1nc2ccccc2c(=O)[nH]1)Cc1cccs1 | 0.197 |

| Compound | z-score |
| --- | --- |
| Cc1csc(C2=C(O)CN(CCc3ccccc3)C2=N)n1 | 0.578 |
| NC(=O)c1ccccc1OCC(=O)NS(=O)(=O)c1ccccc1 | -0.137 |
| Cc1ccc(-n2c(-c3ccco3)nc3c(cnn3-c3ccccc3C)c2=O)cc1 | -0.218 |
| COc1ccc2nc(SCC(N)=O)[nH]c2c1 | 0.59 |
| Cc1ccc2nc(NCCO)nc(-c3ccccc3)c2c1 | 0.968 |
| O=C(CCCN1C(=O)CCC1=O)Nc1ccc(Cl)c(C(F)(F)F)c1 | -0.0185 |
| O=C1CC(C(=O)Nc2ccccc2)N=C(N2CCCCC2)N1 (stereo not given) | 0.00412 |
| COc1cccc(CNc2ccc(S(N)(=O)=O)cc2)c1OCc1ccccc1F | -0.468 |
| CC1(C)CC(=O)C2=C(C1)OC(c1ccncc1)C(C#N)=C2N (stereo not given) | 0.377 |
| Cn1c2ccccc2c(=O)c2c(=O)n(C3CCCCC3)c(-c3cccs3)nc21 | -0.394 |
| Nc1n[nH]c(-c2ccccc2)c1-c1ccccc1 | -0.118 |
| COC1(OC)N=C(NC(=O)Nc2ccccc2)C2(C#N)C(c3ccccc3)C12C#N (stereo not given) | -0.0401 |
| O=C(c1cc2ccccn2n1)N1CCN(c2cccc(C(F)(F)F)c2)CC1 | 0.101 |
| CCC(=O)Nc1ccc(NC(=S)Nc2ccccc2)cc1 | -0.362 |
| N=c1c2c3c(sc2ncn1Cc1ccccc1)CCCC3 | 0.187 |
| Cc1cc(=O)oc2cc(OCC3CC(c4ccc(Br)cc4)=NO3)ccc12 (stereo not given) | -0.809 |
| Cn1c(=O)oc2cc(S(=O)(=O)N3CCN(C(=O)c4ccco4)CC3)ccc21 | 0.764 |
| Nc1cc(-c2ccc(Br)cc2)nn1S(=O)(=O)c1ccccc1 | 0.484 |
| Cc1nc2ccc(S(=O)(=O)N(C)CC(=O)N3CCc4ccccc43)cc2s1 | -0.14 |
| CCOC(=O)c1c(CN2CCOCC2)n(-c2ccccc2)c2cc(Br)c(O)cc12 | -0.822 |
| COCC(=O)N(Cc1ccco1)c1nnc(C2CCOC2)s1 (stereo not given) | 0.036 |
| CCC(C)[C@H](NC(=O)Nc1cccc(Cl)c1)C(=O)O (stereo not given in full) | -0.129 |

| Compound | z-score |
| --- | --- |
| CN(C)C(=O)CN(C)S(=O)(=O)c1ccc(Cl)cc1 | 0.0253 |
| CC(C)(C)NC(=O)COc1ccc(CNCc2cccs2)cc1 | -0.216 |
| COc1ccccc1Oc1coc2c(CN(C)C)c(O)ccc2c1=O | 0.181 |
| COCCn1c(=O)[nH]c2cc(C(=O)NCCc3ccc(OC)c(OC)c3)ccc2c1=O | 0.373 |
| Cc1ccccc1-n1c(=O)cc(N2CCN(C(=O)c3ccco3)CC2)[nH]c1=O | -0.201 |
| Cc1cc(C(=O)CSc2nnc(-c3ccccc3F)o2)c(C)n1Cc1cccs1 | 0.122 |
| CCCc1nnc(SCC(=O)N2CCCCC2C)n1CCCOC (stereo not given) | -0.163 |
| O=S(=O)(NC1CCCCCC1)c1ccc(Br)s1 | -0.403 |
| CC1=NN(c2ccc(C)cc2C)C(=O)C1C(c1ccccc1)C1C(=O)N(c2ccc(C)cc2C)N=C1C (stereo not given) | -0.874 |
| CCN(CC)S(=O)(=O)c1cccc(-c2nnc(C(=O)c3ccc(C(F)(F)F)cc3)o2)c1 | -0.091 |
| CC(NC(=O)c1cc2c(=O)n(C)c3ccccc3c2n1C)c1ccc2c(c1)OCCO2 (stereo not given) | -0.437 |
| Cn1c(=O)[nH]c(=O)c2c1nc(Br)n2CCSc1ncccn1 | 0.549 |
| CCOC(=O)c1ccccc1NC(=O)COc1cc(=O)n(CC)c2ccccc12 | -0.743 |
| Cc1cc(C(=O)CSc2n[nH]c(N)n2)c(C)n1-c1ccc(F)cc1 | -0.628 |
| O=C(c1nn(Cc2ccccc2)c(=O)c2ccccc12)N1CCN(C/C=C/c2ccccc2)CC1 | -0.529 |
| CCCC1=Nc2cc(C(=O)NCCCOCC)ccc2Sc2ccccc21 | -0.599 |
| CCOC(=O)c1c(N)n(CC(C)NC(=O)C2CC2)c2nc3ccccc3nc12 (stereo not given) | 0.154 |
| C=CCc1ccc(OCCCCCN2CCOCC2)c(OC)c1 | 0.566 |
| C=CCNc1nc(SCC=C)nc2ccsc12 | -0.905 |
| CCC(CC)c1nnc(NC(=O)CN2C(=O)C3C4C=CC(C4)C3C2=O)s1 (stereo not given) | 0.0107 |
| Cc1ccc(-c2csc(NC(=O)c3ccc4c(=O)n5c(nc4c3)CCCCC5)n2)cc1 | -0.351 |
| CC(CCc1ccccc1)NC(=O)COc1ccc(S(=O)(=O)N2CCOCC2)cc1[N+](=O)[O-] (stereo not given) | -0.074 |

Source: PubChem BioAssay AID488969 (Vanderbilt High Throughput Screening Facility, 2010)
